{
  "source": "patent US12551573B2",
  "about": "“Compositions and methods for the targeting of PCSK9” (Scribe Therapeutics Inc., priority 2022, dated 2026)",
  "data": [
    {"system": "HBEGF locus", "format": "cell-based, human", "conditions": "high-throughput screen of dXR repression of the HBEGF gene; change in abundance of each domain in the library before and after diphtheria toxin selection", "values": [
      {"molecule": "DOMAIN_12452 (protein, listed as Neophocaena asiaeorientalis) SQGPVSFEDVAVDFTQEEWQQLDPAQRTLYRDVMLENYSHLVSVGYPVSKPGVISKLEQGEEPWIMKRDISNWIYPDRETR", "Log2 (fold change)": 3.8774},
      {"molecule": "DOMAIN_12292 (protein, listed as Sus scrofa) FQAPVTFGDLAIYFSQEEWECLSPIQKDLYEDVMLENYQNLVSLGLSFRRPNVITLLEKGKAPWMVEPVKRRRGLDLGSKC", "Log2 (fold change)": 4.3194}
    ]},
    {"system": "HBEGF locus", "format": "cell-based, human", "conditions": "repressor domain in dXR, repression of the HBEGF gene; abundance of domain in library after vs before diphtheria toxin selection", "values": [
      {"molecule": "DOMAIN_10882 (protein, Vicugna pacos) PQKSVTFEDVAVYFTQTEWDGLSPAQRALYRDVMLENYGNVASLGFPLLKPAVISQLEGGGKLGGPSPLASGTGTGPQGLW", "Log2 (fold change)": 3.6289},
      {"molecule": "DOMAIN_10704 (protein, listed as Colobus angolensis) RLESVTFEDVAVYFTQNQWASLNPAQRALYGEVMLENYANVASLVAFPFPKPALISHLERGEAPWGPDPWDTKIPRGIGQG", "Log2 (fold change)": 3.1582},
      {"molecule": "DOMAIN_10646 (protein, Delphinapterus leucas) FESVVFEDVAVDFTPEEWALLDPAQRNLYRDVMLETFRNLASVGENWKCHSIEDQHKNQGTHLRWRVVEIPSENNESNQCG", "Log2 (fold change)": 2.9354},
      {"molecule": "DOMAIN_10684 (protein, listed as Odobenus rosmarus) QAEVTFEDVAVLFSREEWGRLSPAQRGLYRDVMLETYRNLVSLGAGPAGPKPGVITQLERGDEPWVLDAQGAKGKERLRVS", "Log2 (fold change)": 4.531},
      {"molecule": "DOMAIN_10420 (protein, listed as Odobenus rosmarus) SQEPVTFEDVAVYFTQNQWASLDPMQRALYLEVMLENYANITSLAALPFPKPDLILQLEQGEAPWGLDPWTPLEREALGGV", "Log2 (fold change)": 3.7185},
      {"molecule": "DOMAIN_10427 (protein, listed as Carlito syrichta) SKDLVTFGDVAVNFSQEEWEWLNPAQRNLYRRVMLENYRSLVSLGVSVSKPDVISLLEQGKEPWMVKKEGTRGACPDWEYV", "Log2 (fold change)": 2.3719},
      {"molecule": "DOMAIN_11024 (protein, listed as Suricata suricatta) TQDPVVFEDVAVDFTQEEWALLNLAQRNLYRDVMLENFQNLASLGYPLHIPYLISQWKQEEDLGTVERGTIQGEHQEGFET", "Log2 (fold change)": 3.2397},
      {"molecule": "DOMAIN_11006 (protein, listed as Loxodonta africana) QESVTFKDVAVDFTQEEWHHMDPTQRILYRDVMLETYSHLVSLGYQVSKPEVIFKLEQGEEPWISEEEIQRPFCPDWEIRP", "Log2 (fold change)": 2.6669},
      {"molecule": "DOMAIN_10943 (protein, listed as Cervus elaphus) VFDAVTFTDVAVDFSQDEWERLTLAQRTLYKKVMLENYSNLASLGLCISKPDVISSLEQDKEPWTMKGELTRGPCADLEYV", "Log2 (fold change)": 2.5554},
      {"molecule": "DOMAIN_10623 (protein, listed as Carlito syrichta) SQGLVTFGDVALDFSQEEWEWLNPSQKDLYRDVMLENYRNLVWLGLSISKPNMISLLEQGKEPWMVEREMSHGQCADWESW", "Log2 (fold change)": 3.2233},
      {"molecule": "DOMAIN_10491 (protein, Vicugna pacos) RPESVTFEDVAIYFSENEWTGLAPAQRALYRDVMLENYGALASLAAFPFPKPALIFQLEQGEAPWSSAPQGALDGEGPRGI", "Log2 (fold change)": 3.7199},
      {"molecule": "DOMAIN_10762 (protein, listed as Erinaceus europaeus) RSEALSFADVSVSFSREEWGCLRPAQKALYRDVMRETCGLLGALGLSGPKPAFISWLEGEMEAWSPEAHEPERESRAADAR", "Log2 (fold change)": 3.9254},
      {"molecule": "DOMAIN_10403 (protein, Vicugna pacos) AQGSVMFSDVSIDFSQEEWECLNDDQRDLYRDVMLENYSNLVSMGHCISKPDVISFLEQGKEPWLVDREPTRYQWPVLESR", "Log2 (fold change)": 3.3993},
      {"molecule": "DOMAIN_10495 (protein, Delphinapterus leucas) SQEAVTFEDVAVNFSNEEWQCLTHAQRHLYKDVMLENYGNVVSLGFPFPKPPLISHLEQEAELCVQDGQDREFLSCSHPVS", "Log2 (fold change)": 3.4705},
      {"molecule": "DOMAIN_10425 (protein, Delphinapterus leucas) SQESVSFEDVAVYFTRNQWASLDSAQRTLYREVMLENYANVTSLAAFPFPKPDLIFQLERGKAPGGLDPWTPIRREVRGVC", "Log2 (fold change)": 2.8616},
      {"molecule": "DOMAIN_10705 (protein, listed as Colobus angolensis) SKAPITFGDLAIYFSQEEWEWLSPIQKDLYEDVMLENYRNLVSLGLSFRRPNVITLLEKGKAPWMVEPVRRRQAPDSGSKC", "Log2 (fold change)": 3.6392},
      {"molecule": "DOMAIN_10647 (protein, Delphinapterus leucas) AQESVMFSDVSIDFSQEEWEYLNDDQRDLYREVMLENYSNLVSMAGHSISKPDVISFLEQGKEPWLVDRELTRDQWPVLES", "Log2 (fold change)": 2.9514},
      {"molecule": "DOMAIN_10917 (protein, listed as Odobenus rosmarus) KPGAVSFADVAVYFSPEEWGCLRPAQRALYRDVMRETYGHLGALGFPGPKPALISWMEQESEAWSPAAQDPEEGESLGGAL", "Log2 (fold change)": 3.7871},
      {"molecule": "DOMAIN_10526 (protein, Delphinapterus leucas) FQGSLSFRDVAVGFTRKEWQQLDPTQRTLYRDVMLENYSHLVSVGCQVTKPAVISRLEQGQEPWMKEEEILRWSFPEVLQV", "Log2 (fold change)": 2.4499},
      {"molecule": "DOMAIN_11031 (protein, listed as Mandrillus leucophaeus) SKGSLMFRDVSIDFSQEEWECLDSGQMNLYKEVMLENFSNLVSVGLSSSKPAVISLLEQGKEPWMVDRELTRGLCSDLESM", "Log2 (fold change)": 2.5516},
      {"molecule": "DOMAIN_10765 (protein, listed as Mustela putorius) SSVTFEDVAVYFSQEEWRFLNKAQKHLYHDVMLEVFALIASLGGGQGALEAAAPSEQNVSGGGSQKAYAQDCSLDTNPGQT", "Log2 (fold change)": 2.5661},
      {"molecule": "DOMAIN_10733 (protein, listed as Odobenus rosmarus) RPRAVKFADVAVYFSPEEWGCLRPAQRALYRDVMRETYGHLGALGCAGPKPALISWLERNTDDWEPAALDPQECPRGLTVQ", "Log2 (fold change)": 3.315},
      {"molecule": "DOMAIN_10902 (protein, Vicugna pacos) RPRAVKFADVAVYFSPEEWECLRPAQRALYRDVMQETYGHLGALGCAGPKPALISWLERNTNDWELAALDPQECPRQMTVQ", "Log2 (fold change)": 3.1052}
    ]}
  ]
}
